From publication PMC6919601, “Identification of Plasmodium dipeptidyl aminopeptidase allosteric inhibitors by high throughput screening” (PLoS ONE, 2019)
The whole screen tested about 110,000 compounds, of which about 230 (0.21%) showed an effect of 50% or more. This is one part of the list.

Each compound was assayed against DPAP1 (Plasmodium falciparum, UniProt Q8IIJ9) (assay: primary screen, percent inhibition; read by cleavage of a fluorogenic dipeptide substrate; higher = more effect of the substance).
Set-up: species or system P. falciparum D10 trophozoite lysates; single well
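Also: 30 min substrate incubation versus DMSO and 10 µM JCP410 controls.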

Chain of DPAP1 (Q8IIJ9 whole entry, looked up): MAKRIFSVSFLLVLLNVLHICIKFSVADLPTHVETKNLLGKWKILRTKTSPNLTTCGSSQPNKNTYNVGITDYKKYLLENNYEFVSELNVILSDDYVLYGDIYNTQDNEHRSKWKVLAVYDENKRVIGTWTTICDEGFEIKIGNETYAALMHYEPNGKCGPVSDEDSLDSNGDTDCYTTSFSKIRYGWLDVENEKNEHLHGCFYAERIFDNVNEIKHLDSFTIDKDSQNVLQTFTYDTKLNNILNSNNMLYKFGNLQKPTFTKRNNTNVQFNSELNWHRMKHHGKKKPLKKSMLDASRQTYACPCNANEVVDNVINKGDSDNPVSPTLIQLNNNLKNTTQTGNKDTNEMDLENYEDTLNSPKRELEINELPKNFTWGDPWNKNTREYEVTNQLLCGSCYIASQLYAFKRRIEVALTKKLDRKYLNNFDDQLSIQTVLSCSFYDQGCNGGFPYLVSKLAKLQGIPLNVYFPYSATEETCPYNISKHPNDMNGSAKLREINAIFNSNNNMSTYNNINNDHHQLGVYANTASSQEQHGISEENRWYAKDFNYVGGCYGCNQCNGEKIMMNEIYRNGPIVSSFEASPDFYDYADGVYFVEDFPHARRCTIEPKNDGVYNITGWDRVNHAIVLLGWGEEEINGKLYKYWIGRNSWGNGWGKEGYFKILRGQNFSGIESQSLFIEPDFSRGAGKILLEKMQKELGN

In order of rising “% Inhibition @ 10 uM” value:
1. COc1ccc(N(CN2C(=O)C3CCC(C)CC3C2=O)C(C)=O)cc1 (stereo not drawn)  -17.9%
2. OC1CCN(Cc2ccc(Cl)c(Cl)c2)CC1  -13.8%
3. CCCCNC(=O)CCN1C(=O)c2ccccc2S1(=O)=O  -8.53%
4. COc1ccc(-c2nnc3c4cnn(-c5ccccc5)c4ncn23)cc1OC  -5.85%
5. CCOc1ccc(C(=O)Nc2ccc(S(=O)(=O)Nc3nccs3)cc2)cc1  -5.78%
6. COc1ccc2nc(NC(=O)c3c(-c4ccccc4)noc3C)sc2c1  -5.69%
7. O=C(COc1ccc(S(=O)(=O)NCCc2ccccc2)cc1)N1CCCCCC1  -5.31%
8. O=C(O)c1cc(-c2ccc(O)cc2)nc2[nH]nc(-c3ccccc3)c12  -4.18%
9. CC1=C(C(=O)c2ccccc2)C(c2ccccc2)NC(=O)N1 (stereo not drawn)  -3.77%
10. Cc1ccc(S(=O)(=O)NCCC(c2ccc(F)cc2)c2ccco2)cc1 (stereo not drawn)  -3.74%
11. COCCN1C2=C(C(=O)CC(C)(C)C2)C(c2cc(Cl)c(O)c(OC)c2)C2=C1CC(C)(C)CC2=O  -3.41%
12. CCC(=O)Nc1ccc(NC(=O)c2ccco2)cc1  -2.37%
13. C=CCSC1=C(C#N)C(c2ccc(CC)cc2)CC(=O)N1 (stereo not drawn)  -0.864%
14. O=C(Nc1ccc(Br)cc1)c1cccc(S(=O)(=O)Nc2ccc(Cl)cn2)c1  -0.0217%
15. COc1ccc(C(NC(=O)C2CC=CCC2C(=O)O)c2ccccc2)cc1 (stereo not drawn)  0.503%
16. CCN(CC)C(=O)C1CCCN(Cc2c3ccccc3cc3ccccc23)C1 (stereo not drawn)  1.26%
17. Cn1nc(C(=O)NCCN2CCOCC2)c2c1-c1ccccc1SC2  1.68%
18. CC(Nc1cc(N2CCN(CCO)CC2)ccc1[N+](=O)[O-])C12C[C@H]3C[C@@H](C1)C[C@@H](C2)C3 (stereo partly drawn)  1.72%
19. Cc1cc(=O)oc2c1c(C)nn2-c1ccc(Br)cc1  2.22%
20. CCOP(=O)(O)C(Oc1ccccc1O)c1ccccc1 (stereo not drawn)  2.6%
21. c1ccc2sc(SCc3ccc4nonc4c3)nc2c1  2.69%
22. Cc1cc(C)cc(NS(=O)(=O)c2ccc(NC(=O)[C@@H]3CCCC[C@@H]3C(=O)O)cc2)c1  2.86%
23. O=C(Nc1cccc(Cl)c1)Nc1nc2ccccc2[nH]1  3.24%
24. O=C1c2ccccc2C(=O)N1C1CCCCC1N1C(=O)c2ccccc2C1=O (stereo not drawn)  3.5%
25. CCOc1ccc(C2(O)C[N+](c3cccc(C)c3C)=C3CCCCN32)cc1 (stereo not drawn)  3.99%
26. COc1cccc(S(=O)(=O)Nc2cccc(C(C)=O)c2)c1  6.69%
27. Cc1ccc(Cn2c(C(=O)O)c(CNCCc3ccccc3Cl)c3ccc(C)cc32)cc1  8.55%
